Source: PubChem BioAssay AID485294 (National Center for Advancing Translational Sciences (NCATS), 2010)
About 150 (0.041%) of roughly 370,000 compounds were called active. Inconclusive means that the source gave no clear call. Such entries were picked first, then a sample of the others. Calls come from the whole dose curve; as a rule, active = well fitted inhibition curve with a large enough effect; inconclusive = small, poorly fitted or top-dose-only effect; inactive = flat fitted curve, though single readings scatter. Potencies of inconclusive entries are left out as doubtful fits.

These compounds were tested against Beta-lactamase (Escherichia coli (strain K12)) (UniProt P00811) (assay: qHTS Inhibitors of AmpC Beta-Lactamase (assay with detergent)). Settings: AmpC hydrolysis of nitrocefin, absorbance 480 nm, 0.01% Triton; activity change, negative = inhibition: at 114 µM (top of the series).
Method in brief: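 AmpC (5.3 nM in the dispensed reagent) in 20 mM phosphate pH 7.0 with 0.01% (detergent screen) or 0.0001% Triton X-100 was preincubated with compounds for 15 min at room temperature. Nitrocefin was then added from an 800 uM solution, and hydrolysis was followed at 480 nm.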
Note: nearly all actives have a fitted effect of over 25% in size.
Potency is the fitted concentration of half-maximal effect; tags give direction and shape of the fitted curve.
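Throughout, for activity change, negative = inhibition: 0% = no-compound wells and -100% = no-enzyme wells.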

UniProt P00811, sequence (P00811 whole entry, looked up): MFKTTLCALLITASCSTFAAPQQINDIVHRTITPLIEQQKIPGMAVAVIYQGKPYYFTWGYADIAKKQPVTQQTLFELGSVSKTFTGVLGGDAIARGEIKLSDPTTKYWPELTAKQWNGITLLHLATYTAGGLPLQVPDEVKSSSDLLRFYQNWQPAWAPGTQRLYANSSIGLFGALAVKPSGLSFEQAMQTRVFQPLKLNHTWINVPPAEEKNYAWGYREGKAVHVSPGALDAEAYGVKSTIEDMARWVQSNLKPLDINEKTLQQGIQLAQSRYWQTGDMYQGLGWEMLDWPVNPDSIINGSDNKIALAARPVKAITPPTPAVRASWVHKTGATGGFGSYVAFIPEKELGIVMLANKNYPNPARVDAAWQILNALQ

SMILES | Potency | activity change, negative = inhibition
COC(=O)CCCCCN1C(=O)NC(c2ccc(-c3ccccc3)cc2)C(C(=O)OCc2ccccc2)=C1C (stereo not drawn) | inconclusive [inhibitor, full curve, poor fit] | 
CC(=O)c1c(C)[nH]c(C(=O)OCC(=O)N2CCN(S(=O)(=O)c3ccc(C)cc3C)CC2)c1C | inconclusive [inhibitor, single point] | 
Cc1ccc(S(=O)(=O)N2CCCC2C(=O)Nc2ccc(O)cc2)cc1 (stereo not drawn) | inconclusive [inhibitor, partial curve, poor fit] | 
O=c1cc(CN2CCN(Cc3ccccc3)CC2)c2cc3c(cc2o1)CCC3 |  | inactive: -3.55%
Cc1cc(C)nc(Sc2ccc3nnc(C(F)(F)C(F)(F)C(F)(F)F)n3n2)n1 | inconclusive [inhibitor, full curve, poor fit] | 
Cc1ccc([C@@H]2[C@@H]3C(=O)N(c4ccccc4)C(=O)[C@@H]3[C@]3(C)C(=O)N(Cc4ccccc4)CC(=O)N23)o1 | inconclusive [inhibitor, full curve, poor fit] | 
COc1ccc(Cc2nnc(SCc3c(C)noc3C)n2C2CCCCC2)cc1OC | inconclusive [inhibitor, partial curve, poor fit] | 
Cc1cccc(C(=O)OCC(=O)NNC(=O)c2cccs2)c1O | inconclusive [inhibitor, full curve, poor fit] | 
COc1ccc(NC(=O)/C(C#N)=C/c2ccc(OCc3cc(=O)n4nc(C)sc4n3)cc2)cc1 |  | inactive: -9.34%
Cc1cc(NC(=O)CSc2nnnn2C2CCCC2)no1 | inconclusive [inhibitor, full curve, poor fit] | 
O=C1CCCC2=C1C(c1ccc(Cl)cc1)C1C(=O)c3ccccc3C1=N2 (stereo not drawn) |  | inactive: 2.07%
CCOc1ccc2oc(C(=O)N(C)CCc3ccc(OC)c(OC)c3)c(C)c2c1 | inconclusive [inhibitor, single point] | 
CN(C)c1ccc(N2C(=O)CC(Nc3ccc(N4CCOCC4)cc3)C2=O)cc1 (stereo not drawn) | inconclusive [inhibitor, partial curve, poor fit] | 
CCC1=NN(C(=O)c2ccc(Cl)cc2)C(O)(c2ccc(C)cc2)C1 (stereo not drawn) | inconclusive [inhibitor, partial curve] | 
CC(C)Nc1nc(-c2ccccn2)nc(-c2ccccc2)c1C#N | inconclusive [inhibitor, full curve, poor fit] | 
CCOC(=O)c1c(C)n(Cc2ccco2)c2ccc(OC)cc12 | inconclusive [inhibitor, full curve, poor fit] | 
COc1ccc(N2C(=O)[C@@H]3C(c4cccnc4)=NO[C@@H]3C2=O)cc1 |  | inactive: 4.33%
COC(=O)c1ccc(Cn2cnc3c(sc4nc(N5CCOCC5)c5c(c43)CCCC5)c2=O)o1 | inconclusive [inhibitor, single point] | 
COc1ccc(OC2CCN(C(=O)Nc3ccc(C)cc3)CC2)cc1 |  | inactive: -6.01%
N#CCCN(C(=O)COC(=O)Cc1c[nH]c2ccccc12)c1ccccc1 | inconclusive [inhibitor, full curve, poor fit] | 
CCOC(=O)C1=NOC(Cn2cc(C#N)c(=O)n(C)c2=O)C1 (stereo not drawn) | inconclusive [inhibitor, partial curve, poor fit] | 

SMILES | Potency | activity change, negative = inhibition
COC(=O)c1c(NC(=O)c2ccc(C)o2)sc2c1CCCCC2 |  | inactive: 2.59%
CCCCOC(=O)Cn1cnc2ccc(Br)cc2c1=O | inconclusive [inhibitor, full curve, poor fit] | 
CC1CCCCC1NS(=O)(=O)c1ccc(S(=O)(=O)N2CCCC2)cc1 (stereo not drawn) | inconclusive [inhibitor, full curve] | 
Cc1cc(C)c(C)c(S(=O)(=O)NCc2ccc(C(=O)N3CCCCC3)cc2)c1C | inconclusive [inhibitor, partial curve, poor fit] | 
Cn1c(SCC(=O)Nc2ccccc2F)nc2c(c1=O)SCC2 | inconclusive [inhibitor, full curve] | 
COc1ccc(S(=O)(=O)N2CCC(C(=O)Nc3ccc(S(=O)(=O)N4CCCC4)cc3)CC2)cc1OC | inconclusive [inhibitor, full curve, poor fit] | 
O=C(Nc1ccccn1)c1ccc(S(=O)(=O)N2CCCCCC2)cc1 | inconclusive [inhibitor, full curve, poor fit] | 
CN1CCN(C(CNC(=O)C(=O)Nc2ccc3c(c2)OCO3)c2ccc(F)cc2)CC1 (stereo not drawn) | inconclusive [inhibitor, full curve, poor fit] | 
Cc1ccc(S(=O)(=O)Cc2nc(-c3ccc(C(=O)NCc4ccccc4)cc3)oc2C)cc1 |  | inactive: -8.44%
CCOC(=O)C1CCN(c2cc(=O)n(-c3ccc(OC)cc3)c(=O)[nH]2)CC1 | inconclusive [inhibitor, full curve, poor fit] | 
O=C(Nc1ccc(N2CCCC2)cc1)c1ccccc1F |  | inactive: -6.49%
CC(=O)c1ccc(NC(=O)c2c3c(nc4ccccc24)C(=O)N(C2CCCCC2)C3)cc1 |  | inactive: 0.368%
CCc1ccc(NC(=S)N2CCN(C)CC2)cc1 | inconclusive [inhibitor, full curve] | 
COc1ccc(NC(=O)CSc2nc3c(c(=O)n2-c2ccccc2)SCC3)c(OC)c1 | inconclusive [inhibitor, single point] | 
CC(Oc1ccc(F)cc1)C(O)CCN(C)C (stereo not drawn) |  | inactive: -11.7%
Cc1ccccc1N1C(=O)C(Oc2ccc(Cl)cc2)C1CNC(C)(C)C (stereo not drawn) | inconclusive [inhibitor, partial curve, poor fit] | 
C[N+]1(CC(COCc2ccccc2)OC(=O)Cc2ccccc2)CCOCC1 (stereo not drawn) | inconclusive [inhibitor, partial curve] | 
CCOC(=O)C1=C(C)N(C)C(=S)NC1c1ccccc1 (stereo not drawn) | inconclusive [inhibitor, partial curve] | 
O=C(CCN1C(=O)C2CCCCC2C1=O)Nc1nc(-c2ccccc2)cs1 (stereo not drawn) |  | inactive: 5.83%
COc1ccc2c(=O)c3c(=O)n(Cc4ccco4)c(C4CCCCC4)nc3oc2c1 |  | inactive: -16.7%
Cc1ccc(C(=O)Nc2nc3ccccc3n3nnnc23)cc1 | inconclusive [inhibitor, full curve] | 

SMILES | Potency | activity change, negative = inhibition
O=C(NCc1ccco1)C(c1ccco1)N(Cc1cccs1)C(=O)Cn1nnc2ccccc21 (stereo not drawn) |  | inactive: -5.75%
CCCn1c(C(C)Nc2nc(-c3ccc(Cl)c([N+](=O)[O-])c3)cs2)nc2cc(Cl)c(N3CCCCC3)cc21 (stereo not drawn) | inconclusive [inhibitor, full curve] | 
CN(C(=O)c1ccno1)c1nnc(-c2cccnc2)s1 | inconclusive [inhibitor, full curve, poor fit] | 
CCOC(=O)C1=C(C)NC2=C(C(=O)CCC2)C1c1cn(Cc2ccc(Cl)cc2Cl)nc1-c1ccccc1 (stereo not drawn) | inconclusive [inhibitor, partial curve] | 
Cn1cc(S(=O)(=O)c2ccccc2)c(=O)c2cc(F)c(N3CCN(c4ccccc4)CC3)cc21 |  | inactive: -1.02%
CCN1CCN(S(=O)(=O)c2ccc(Cl)c(C(=O)N(C)C(c3ccccc3)c3ccccc3)c2)CC1 | inconclusive [inhibitor, partial curve] | 
Cc1cccc(C(=O)N2CCCC(CCC(=O)N3CCN(c4ccccn4)CC3)C2)c1 (stereo not drawn) | inconclusive [inhibitor, partial curve] | 
COc1cc(CC(=O)Nc2ccc3nc(SC)sc3c2)cc(OC)c1OC | inconclusive [inhibitor, single point] | 
Cc1cccc(-n2c(-c3ccccc3)cn3c4c(=O)[nH]c(=O)n(C)c4nc23)c1 |  | inactive: 23.3%
Cc1ccc(NC(=O)c2ccc(-n3cccn3)nc2)cc1 | inconclusive [inhibitor, partial curve, poor fit] | 
Cc1cc2c(cc(C(=O)NCc3cccnc3)n2Cc2ccc(Cl)cc2)o1 | inconclusive [inhibitor, full curve] | 
Cc1ccccc1-c1cc(C(=O)Nc2nc3c(s2)CCCC3)c2ccccc2n1 | inconclusive [inhibitor, full curve, poor fit] | 
Cc1ccc(NC2=NCCCCC2)cc1C | inconclusive [inhibitor, full curve, poor fit] | 
CCN(CC)CCNC(=O)C1(O)c2cc(Br)ccc2NC(=O)N1c1cccc(OC)c1 (stereo not drawn) |  | inactive: -0.945%
c1cncc(-c2nn3c(Cn4nnc5ccccc54)nnc3s2)c1 | inconclusive [inhibitor, partial curve] | 
CCn1c(O)c(/C=N/NC(=O)c2ccncc2)c(=O)[nH]c1=S | inconclusive [inhibitor, partial curve, poor fit] | 
OCCNc1nc(NCCC2=CCCCC2)nc(N2CCOCC2)n1 | inconclusive [inhibitor, full curve, poor fit] | 
Cc1cc(C)nc(N2CCC(C(=O)NCc3ccco3)CC2)n1 | inconclusive [inhibitor, full curve, poor fit] | 
Cc1cccc(Cn2cc(C(=O)Nc3ccc(F)c(C(F)(F)F)c3)ccc2=O)c1 |  | inactive: 17.3%
COCCSc1nc2c(c(=O)[nH]c(=O)n2C)n1Cc1cccc(C)c1 | inconclusive [inhibitor, full curve, poor fit] | 
CCOC(=O)C1(CCSC)NC(c2ccco2)C2C(=O)N(C)C(=O)C21 (stereo not drawn) | inconclusive [inhibitor, partial curve, poor fit] | 
